Data on 88 molecules can be found in paper PMC4336329 (PLoS ONE, 2015).

The campaign covered roughly 310,000 compounds. About 14,000 (4.5%) showed an effect of 50% or more. Effects have a minus sign here. The list shows a part of the results.
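Also: peak tail current of the secondary pulse compared with the same well before compound.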

The target in this test is human ether-à-go-go-related gene (hERG) potassium channel (human, UniProt Q12809). The experiment in a line: primary screen, population patch clamp on CHO cells stably expressing hERG.
Chain of human ether-à-go-go-related gene (hERG) potassium channel (Q12809 whole entry, looked up): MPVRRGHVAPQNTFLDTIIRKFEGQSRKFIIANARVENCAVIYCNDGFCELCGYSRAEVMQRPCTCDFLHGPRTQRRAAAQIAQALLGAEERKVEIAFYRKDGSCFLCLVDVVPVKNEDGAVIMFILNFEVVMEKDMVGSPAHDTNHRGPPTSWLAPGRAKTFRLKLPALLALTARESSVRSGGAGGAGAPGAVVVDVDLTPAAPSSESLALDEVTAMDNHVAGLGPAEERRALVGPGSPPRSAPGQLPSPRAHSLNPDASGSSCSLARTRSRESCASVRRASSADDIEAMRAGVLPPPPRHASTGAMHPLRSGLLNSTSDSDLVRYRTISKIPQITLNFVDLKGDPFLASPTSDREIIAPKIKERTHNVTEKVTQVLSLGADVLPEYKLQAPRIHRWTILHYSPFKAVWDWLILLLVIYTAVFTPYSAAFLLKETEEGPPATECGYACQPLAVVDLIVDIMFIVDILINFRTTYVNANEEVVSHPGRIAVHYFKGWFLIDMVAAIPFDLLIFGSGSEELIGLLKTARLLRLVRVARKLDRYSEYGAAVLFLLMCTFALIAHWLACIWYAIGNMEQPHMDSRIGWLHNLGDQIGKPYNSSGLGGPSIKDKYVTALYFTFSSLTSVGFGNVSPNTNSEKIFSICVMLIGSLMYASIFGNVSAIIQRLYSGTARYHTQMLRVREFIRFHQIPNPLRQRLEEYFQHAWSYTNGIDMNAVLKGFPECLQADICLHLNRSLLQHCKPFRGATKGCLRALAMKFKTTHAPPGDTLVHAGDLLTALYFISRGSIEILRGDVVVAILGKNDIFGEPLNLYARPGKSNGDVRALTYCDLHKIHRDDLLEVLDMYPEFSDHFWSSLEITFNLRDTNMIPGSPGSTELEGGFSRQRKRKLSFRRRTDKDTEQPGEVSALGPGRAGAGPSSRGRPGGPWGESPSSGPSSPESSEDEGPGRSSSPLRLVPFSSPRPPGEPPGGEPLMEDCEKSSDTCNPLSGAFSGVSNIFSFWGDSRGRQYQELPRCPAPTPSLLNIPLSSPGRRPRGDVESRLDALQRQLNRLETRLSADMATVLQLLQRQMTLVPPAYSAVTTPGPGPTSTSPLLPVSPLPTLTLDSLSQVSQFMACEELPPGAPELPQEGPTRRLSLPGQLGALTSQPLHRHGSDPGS
Regarding `COc1ccc(CCNC(=O)c2csc3c2CCCC3)cc1OC`, the “hERG current change (%, negative = inhibition) at 10uM” value is 18.2%.
As for `CC(C)c1ccc(N2C(=O)NC(=O)/C(=C/C=C/c3ccco3)C2=O)cc1`, the figure is 2.7%; as for `O=C(CSc1ccc([N+](=O)[O-])cn1)Nc1ccccc1N1CCOCC1`, -19.2%; as for `C=C(C)Cn1c(-c2ccccc2)nc2ccccc21`, -64.9%.
The figure for `CC(C)CNS(=O)(=O)c1ccc(CCC(=O)O)cc1` is 12.5%.
As to `NS(=O)(=O)c1cccc(NC(=O)COC(=O)CCSc2ccccc2)c1`, the “hERG current change (%, negative = inhibition) at 10uM” value is given as -11.2%.
As for `C[C@H](NC(=O)[C@H]1N2C(=O)c3ccccc3C2SC1(C)C)C(=O)NCC1CCCO1` (stereo partly shown), the figure is 32.2%; as for `CN(C)c1ccc(-c2nnc(-c3ccc(S(=O)(=O)C(F)F)cc3)o2)cc1`, -5.91%.
The figure for `CC(C)(C)NC(=O)CSc1nnc(-c2ccco2)n1Cc1ccco1` is -5.83%; for `CC(C)C(=O)NCCc1nc(-c2ccccc2)no1` it is 0.581%; for `O=C(Nc1ccnn1C1CCN(C(=O)c2c(F)cccc2F)CC1)C1CC1` it is 13.7%.
As for `CCOCCCNC(=S)N1C2CCC1CC(NC(=O)NC1CCCCC1)C2` (stereo not shown), the figure is 1.88%; as for `CC(C)(C)NC(=O)CSc1nncn1NCc1cccc2ccccc12`, 7.79%.
For `O=C1NC[C@H](c2ccccc2)N(CCc2cccc(F)c2)C1=O`, the “hERG current change (%, negative = inhibition) at 10uM” value was 4.47%.
As for `C#CCOCCOCCOCCNc1nc(N2CCN(C(=O)C([C@@H](C)CC)n3cc(C(N)COC(=O)C(F)(F)F)nn3)CC2)nc(N2CCN(C(=O)[C@H](Cc3cc4ccccc4[nH]3)n3cc(C(N)CO)nn3)CC2)n1.Cl` (stereo partly shown), the figure is 9.56%.
The figure for `Cc1ccc(NC(=O)c2ccc(OC(=S)N3CCOCC3)cc2)cc1` is 4.95%; for `Cc1ccccc1N1C(=O)c2ccccc2C1O` (stereo not shown) it is 20.4%; for `CC1CCc2cc(F)ccc2N1C(=O)C12CCC(C)(C(=O)O1)C2(C)C` (stereo not shown) it is -21%.
As for `N#Cc1c(-c2ccncc2)c2c([nH]c1=O)-c1ccccc1OC2`, the figure is 24%; as for `COc1ccc(N2CCN(c3nc4ccccc4nc3NS(=O)(=O)c3ccccc3)CC2)cc1`, 1.21%; as for `O=C(O)c1cccnc1Nc1cccc(C(F)(F)F)c1`, 28.7%.
Consider `COc1ccccc1NC(=O)/C(C#N)=C/c1ccncc1`, for which the “hERG current change (%, negative = inhibition) at 10uM” value is on record as 16.3%.
The figure for `C/C(=N/Nc1nc(-c2ccccc2)cc(-c2ccc(F)cc2)n1)c1cccc(N)c1` is 3.2%; for `Cc1noc(C)c1COC(=O)COc1cccc2c1OC(C)(C)C2` it is 11%; for `CN(C)S(=O)(=O)c1ccc(NC(=O)COC(=O)c2ccccn2)cc1` it is -1.05%.
The figure for `CCn1c(SCC(=O)c2ccc(OC)cc2)nnc1C1CC1` is 6.73%; for `Cc1nc([N+](=O)[O-])c(C(=O)OCc2ccccc2C#N)n1C` it is 19.4%.
As for `COc1ccc(-n2c(SCC(N)=O)nnc2-c2ccc(NS(=O)(=O)c3ccc(C)cc3)cc2)cc1`, the figure is 19.8%.
Turning to `CCc1ccccc1NC(=O)c1cccc(Oc2ccc([N+](=O)[O-])cc2Cl)c1`, the “hERG current change (%, negative = inhibition) at 10uM” value amounted to 8.99%.
For `Nc1ncc(Br)cc1S(=O)(=O)NCCC(=O)N1CCN(c2ncccn2)CC1`, the “hERG current change (%, negative = inhibition) at 10uM” value is reported as -25.6%.
For the molecule `Cc1ccc(OCCSc2ncnc3nc[nH]c23)cc1`, the “hERG current change (%, negative = inhibition) at 10uM” value turned out to be 3.48%.
The figure for `COc1ccc(Cl)cc1NC(=O)CNc1ccccc1CN(C)C1CCCCC1` is -37.9%.
The figure for `O=C(Nc1ccc(-c2ccc([N+](=O)[O-])cc2)cc1)c1ccccc1F` is 19.9%; for `COCCN(C(=O)Nc1ccc(F)cc1F)c1nc2ccccc2s1` it is 15.8%.
`CCOC(=O)C1=C(C)NC(=O)NC1c1ccc(-c2ccccc2F)o1` (stereo not shown): the “hERG current change (%, negative = inhibition) at 10uM” value was determined as 2.79%.
As for `Cc1nnc(SCC(=O)NC(=O)NCCC(C)C)s1`, the figure is -8.92%.
As for `Cc1ccc(S(=O)(=O)N2CCCC2C(=O)O)s1` (stereo not shown), the figure is -4.11%.
On to `COC(=O)c1ccccc1NC(=O)C1CC(=O)N(c2ccc(F)cc2)C1` (stereo not shown), for which the “hERG current change (%, negative = inhibition) at 10uM” value is on record as -22%.
For `CCOc1ncccc1C(=O)OCCCC(=O)c1ccc(Br)cc1`, the “hERG current change (%, negative = inhibition) at 10uM” value was -17.2%.
The figure for `CCc1ccccc1N(C(=O)Cn1nnc2ccccc21)C(C(=O)NCCOC)c1ccco1` (stereo not shown) is -7.99%; for `COCCCN(C(=O)Cc1ccc(Cl)c(Cl)c1)c1c(N)n(Cc2ccccc2)c(=O)[nH]c1=O` it is 7.73%; for `Cc1cccc(N(CC(=O)Nc2ccccc2-c2ccccc2)S(=O)(=O)c2ccccc2)c1C` it is 6.18%.
With `CCc1nnc(NC(=O)c2cc(-c3ccccn3)nc3ccccc23)s1`, the “hERG current change (%, negative = inhibition) at 10uM” value is 9.25%.
The figure for `O=C1c2ccccc2C(=O)N1c1ncn[nH]1` is 11.3%; for `COc1ccc(/C(C)=N/NC(=O)c2cccc(S(=O)(=O)N3CCCC3)c2)c(O)c1` it is 16.4%; for `Nc1cc(Cl)ccc1C(=O)OCC(=O)NC1CCS(=O)(=O)C1` (stereo not shown) it is -11.4%.
As for `CCOc1ccccc1NC(=O)COn1nnc2ccccc21`, the figure is 12.4%.
The figure for `COc1ccc(C2=NN(c3nc(-c4ccccc4)c(CC(=O)O)s3)C(c3ccco3)C2)cc1` (stereo not shown) is 9.4%; for `CC1(C(=O)NC2CCCC2)CCC(=O)N1Cc1ccccc1Cl` (stereo not shown) it is 1.96%.
`CCOc1ccc(NC(=O)c2ccc(NC(=O)CSc3nc4ccccc4c(=O)[nH]3)cc2)cc1`: the “hERG current change (%, negative = inhibition) at 10uM” value was determined as 14.7%.
As for `COCC(C)n1c(SCC(=O)NNC(=O)c2ccccc2)nc2ccccc2c1=O` (stereo not shown), the figure is 5.92%.
`CC(C)(C)c1nnc2sc(SCC(=O)c3cccs3)nn2c1=O`: the “hERG current change (%, negative = inhibition) at 10uM” value is -17.2%.
As for `CC(C)CCNC(=O)CCCn1c(=O)[nH]c2ccc(Br)cc2c1=O`, the figure is 6.03%; as for `O=C(CSc1nnc(NC(=O)c2ccccc2)s1)NCC1CCCO1` (stereo not shown), 6.73%.
As for `Fc1cccc2sc(N3CCCC3)nc12`, the figure is -7.3%.
As for `COCCCn1c(N)c(-c2nc3ccccc3n2C)c2nc3ccccc3nc21`, the figure is -30.9%; as for `Cc1ccc(C)c(NC(=O)COc2cccc3c2CCN(Cc2ccccc2)C3=O)c1`, -10.1%; as for `CCOc1ccc(N(CC(=O)Nc2c(C)cccc2C)S(=O)(=O)c2c(C)[nH]c(=O)[nH]c2=O)cc1`, 8.2%.
As for `NC(=O)C1CCN(S(=O)(=O)c2ccc3c(c2)OCCO3)CC1`, the “hERG current change (%, negative = inhibition) at 10uM” value was found to be 3.65%.
As to `CC(C)c1ccc(/C=C/C2=NNC(=O)CC2)cc1`, the “hERG current change (%, negative = inhibition) at 10uM” value was -19.2%.
Consider `COc1cccc(CNc2ncn[nH]2)c1OCc1ccccc1F`, for which the “hERG current change (%, negative = inhibition) at 10uM” value stood at 4.37%.
As for `COc1ccc(S(=O)(=O)N2CCC3(CC2)OCCO3)cc1`, the figure is -1.84%; as for `CCN(Cc1ccc(N(C)C)cc1)C(C)C(=O)Nc1ccc(S(=O)(=O)N2CCCC2)cc1` (stereo not shown), 6.37%; as for `CN1CCC(=NNC(=O)C(=O)Nc2ccccc2F)CC1`, 9.4%.
As for `Cc1ccc(NC(=O)COC(=O)CNC(=O)C2CCCCC2)c(Br)c1`, the figure is 20%; as for `CC1(C)C(CSc2nc3ccccc3[nH]2)C1(Cl)Cl` (stereo not shown), -15.2%.
The figure for `O=C(Nc1ccccc1)N1CCN(C(=O)Nc2ccccc2)CC1` is 1.5%; for `Cc1ccc(-c2c[nH]c(=S)n2-c2ccccc2F)cc1` it is 5.84%.
In the case of `O=C(OCCNC(=O)c1cc2ccccc2oc1=O)c1cccnc1`, the “hERG current change (%, negative = inhibition) at 10uM” value is on record as -13.7%.
For `O=C(Nc1cccc(F)c1)C1CCN(C(=O)NCc2ccccc2)CC1`, the “hERG current change (%, negative = inhibition) at 10uM” value was -2.77%.
The figure for `CN(CC(=O)N1CCN(c2cccc(Cl)c2)CC1)S(=O)(=O)c1cnc[nH]1` is -11.6%; for `N/C(=N\OC(=O)C12CC3CC(CC(C3)C1)C2)c1ccccc1` it is -11.1%.
The figure for `CCOC(=O)CSc1nc(C2CC2)cc(-c2ccc(F)cc2)c1C#N` is 7.37%; for `COc1cc(-n2nnnc2SC)c(OC)cc1Cl` it is 28.7%; for `O=C(c1cc2cc(F)ccc2[nH]1)N1CCN(c2cccc(Cl)c2)CC1` it is 13.5%.
As for `Cc1ccc(Cl)cc1NC(=S)N(Cc1ccccc1)Cc1cccnc1`, the figure is -22.8%; as for `O=C(O)CSc1nc(C(F)(F)F)cc(=O)n1-c1ccccc1`, 7.51%; as for `O=C(COC(=O)CC12CC3CC(CC(Br)(C3)C1)C2)NC(=O)NCc1ccco1`, 12.1%.
In the case of `Cc1ccc(NC(=O)COC(=O)CCn2c(C)csc2=O)cc1S(=O)(=O)N1CCOCC1`, the “hERG current change (%, negative = inhibition) at 10uM” value is listed as -18.3%.
Take `Cc1nnc(N/N=C/c2ccc(Br)cc2)n1N.Cl`: the “hERG current change (%, negative = inhibition) at 10uM” value is recorded as -16%.
For the molecule `NC(Cc1ccc(O)c([N+](=O)[O-])c1)C(=O)O` (stereo not shown), the “hERG current change (%, negative = inhibition) at 10uM” value is 15.2%.
On to `COc1ccc(CCNC(=O)c2ccc3nc(N4CCOCC4)sc3c2)cc1OC`, for which the “hERG current change (%, negative = inhibition) at 10uM” value is on record as -10.6%.
The figure for `CC(C)Cc1c(O)nc(SCCN2CCOCC2)[nH]c1=O.Cl` is 31.9%; for `O=C(O)/C=C/C(=O)Nc1ccc(Oc2ccccc2)cc1` it is 15.8%.
As for `Cc1ccc(C(=O)N/C(=C/c2ccco2)C(=O)NCCCn2ccnc2)cc1`, the figure is -64.7%.
The figure for `COc1ccc(-n2c(SCC(=O)Nc3ccccc3)nnc2-c2ccc(NS(=O)(=O)c3ccc(C)cc3)cc2)cc1` is 3.59%.
Turning to `CCOC(=O)CSc1nc2c(sc3ccccc32)c(=O)n1CCCN1CCOCC1`, the “hERG current change (%, negative = inhibition) at 10uM” value is given as -65.9%.
In the case of `COc1cc2c(cc1OC)-c1cc3ccc4c(c3c[n+]1CC2)OCO4`, the “hERG current change (%, negative = inhibition) at 10uM” value is 12.6%.
